Experimental data taken from ChEMBL document CHEMBL4888484, “Replenishing the malaria drug discovery pipeline: Screening and hit evaluation of the MMV Hit Generation Library 1 (HGL1) against asexual blood stage Plasmodium falciparum ,using a nano luciferase reporter read-out” (2022).
About 540 (0.36%) of roughly 150,000 compounds showed an effect of 50% or more. This is one part of the list.

Test system: Plasmodium falciparum
Experiment: Primary screen in NF54 nanoGlo assay, in single point, at 2uM, 72h; a lower Z score goes with more inhibition
Assay type: functional, Erythrocyte
Conditions: timepoint 72 hour

SMILES | % Inhibition | Z score
Cc1nc(CCNC(=O)c2ccc(Cl)o2)cs1 | -16% | 1.63
COc1ccccc1N(Cc1ccccc1)C1=NC(=[N+](Cc2ccccc2)c2ccccc2OC)c2ccccc21 | 73% | -6.15
C1CCC2(CC1)OC[C@H](CN1CCOCC1)O2 | -14% | 2.59
COc1ccccc1OCC(=O)Nc1ccc2c(c1)C(=O)Nc1cc(C)ccc1O2 | 24% | -2.77
Cc1nc2ccccc2cc1OCc1ccc(F)cc1 | 34% | -1.18
O=C(NS(=O)(=O)Oc1ccccc1)OC[C@@H]1CCCN2CCCCC12 (stereo not given in full) | -5% | 0.59
CCC1CN(C(=O)NC(C)c2noc(-c3ccccc3)n2)CC(C)O1 (stereo not given) | -11% | 1
CC(C)[C@@H]1N[C@@]2(C(=O)Nc3ccccc32)[C@@H]2C(=O)N(c3ccc(Br)cc3)C(=O)[C@@H]21 | 8% | -0.81
Cc1c(-c2nc3ccccc3n2C)c2ccccc2n1CC(=O)O | 6% | -0.93
Cc1ccc(Cl)cc1NC(=O)N1Cc2cccn2-c2ccccc21 | 3% | -0.4
Cc1nc2c(c(=O)n1C)CN(CC(=O)Nc1ccn(C)n1)C2 | -8% | 1.37
COCCn1cnnc1CNc1nc(C)nc(C)c1C | -13% | 2.07
O=C(c1ccccc1)N1CCC(c2nc(C3CCOCC3)no2)CC1 | -1% | 0.17
Cc1ccc(NC(=O)Cn2c(=O)n(CCc3cccs3)c(=O)c3ccccc32)c(C)c1 | 27% | -3.08
Cc1nn(CCO)cc1CN1CC[C@H]1c1ccc(F)cc1 | -17% | 2.2
O=C(CC(=O)N1CCC(c2nccs2)CC1)NCC(F)(F)F | 4% | -0.79
Cc1ccc(-c2nc(CNC(=O)CO)[nH]c2-c2ccccn2)cc1 | -8% | 1.4
COC(=O)CC1(CC(=O)N2CCCC3(CC3)C2)CCCC1 | -16% | 2.1
CCc1nc(C2CCN([C@@H](C)C(=O)N(C)Cc3cccc(F)c3)CC2)n[nH]1 | -8% | 0.91
Cc1ccc([C@@H](C)CCN2CCCN(C(C)C)CC2)o1 | 7% | -0.95
COCCn1cc(C(=O)Nc2cc(C)ccc2F)c(=O)cc1C | -23% | 2.55
C#CCN(CC#CC)CC(=O)Nc1nncs1 | 4% | -0.57

SMILES | % Inhibition | Z score
O=C1CN(c2ccc(C(=O)NCC3(O)CCCCC3)cc2)C(=O)N1 | -19% | 2.84
COc1cc(CNC2COCC2O)ccn1 (stereo not given) | -6% | 0.71
COc1cccc(C(=O)N2CCCN(C(=O)c3ccc(=O)n(C)n3)CC2)c1 | -10% | 1.22
CCn1ccnc1[C@@H]1CC(=O)Nc2nc(N)ccc21 | -10% | 1.82
Cc1nn(C)c(C)c1CCNC1C2CCCOC2C1(C)C (stereo not given) | 0% | -0.06
CCC[C@H]1CN(S(=O)(=O)c2c(C)cc(C)c3nonc23)C[C@@H]1N | -17% | 1.54
Cc1ccsc1CNC(=O)c1cn([C@H]2CC[C@@H](N)CC2)nn1 | -2% | 0.4
CN1C[C@H](CNC(=O)c2c(F)cccc2F)C2(CCCCC2)C1 | 5% | -0.8
CCn1ccc(C(=O)N2C[C@H]3C[C@H](c4ccccc4)CC[C@@]3(C(=O)O)C2)n1 | 1% | -0.19
CCOc1nc(C)ccc1-c1nc(-c2ccc(Br)o2)no1 | -9% | 1.19
COc1cccc2nc(C[C@H]3CN(C4CCC4)CC[C@H]3CC(=O)O)[nH]c12 | 12% | -1.45
Cc1ccc(C(C)C)c(Oc2ccc(Cl)cc2NC(=O)c2cc(Cl)ccc2O)c1 | 16% | -1.95
CCN(C)c1ccccc1NC(=O)NC[C@H](C)CN1CCOCC1 | -9% | 1.25
CC[C@H](C)N(CCNC(=O)Nc1cn(CC(C)C)c(=O)c2ccccc12)Cc1ccco1 | -9% | 1.48
CCN1C[C@@H](S(=O)(=O)NCC2(CC)CC2)CC1=O | 15% | -1.74
O=C(OCc1ccccc1)[C@@H]1CCCN1C(=O)c1ccccn1 | 4% | -0.54
COc1ccc(CNC(=O)CC[C@H]2CCCN(C)C2)c(OC)c1 | 7% | -1.15
COCCn1cnnc1[C@H](C)NCc1ccc(OC)c(C)c1 | -11% | 2.32
COc1ccc(NC(=O)c2sc3nc(C)c(C(=O)Nc4ccc(C)cc4C)c(-c4ccccc4Cl)c3c2N)cc1 | 38% | -3.76
Cc1nccc(C(=O)OCc2c(C)nn(Cc3ccccc3)c2Cl)n1 | -10% | 1.03
Cc1cn2nnc(C(=O)N3CCC(C(=O)N[C@H]4CCc5ccccc54)CC3)c2c(=O)[nH]1 | -10% | 1.18
CCC(=O)n1nc(NCc2cccc3ccccc23)nc1NCc1cccc2ccccc12 | -13% | 1.72

SMILES | % Inhibition | Z score
COc1cc(C(=O)N2CCC3(CCO3)CC2)ccc1Cl | -2% | 0.32
CCCc1cc(=O)n2nc(Cc3ccccc3)c(-c3ccccc3)c2[nH]1 | 29% | -3.27
CC(C)Oc1ccc([C@H](C(=O)O)N(C)CCC2CCOCC2)cc1 | -3% | 0.61
COCC(NC(=O)C1CC2C=CC1C2)C1CCCO1 (stereo not given) | 9% | -1.61
CC(=O)NCc1csc([C@H]2CCCN(S(=O)(=O)Cc3cc(F)cc(F)c3)C2)n1 | -6% | 0.71
C[C@H](NC(=O)c1cccnc1)C(C)(C)C | -27% | 3.22
Cc1cc(C)c(C(=O)NC2CCN(C(=O)c3cc(F)cnc3O)CC2)o1 | -8% | 0.98
CS(=O)(=O)N(Cc1cccs1)Cc1cccs1 | -14% | 1.94
COc1ccc2c(c1)CCCN(c1nc(C)nc3[nH]ccc13)C2 | -7% | 1.24
CC(C)(C)c1cc(-c2ccc(C#N)cc2)nc(NC2CC2)n1 | 3% | -0.48
N#Cc1ccc(S(=O)(=O)N2CCC[C@H](n3nnc4ccccc43)C2)cc1 | -19% | 1.7
Cc1ccsc1C(=O)Nc1ccnn1C1CCCC1 | -9% | 1.67
COc1ccc2c(O)c(C(=O)NCCN(C)C)cnc2c1 | -7% | 0.96
O=C(Cc1noc2ccccc12)N[C@H](c1cccs1)C1CCOCC1 | 0% | -0.09
Cc1cc(=O)n(CCC2OCCO2)cc1Br | -1% | 0.17
CCn1c(N2CCC[C@H](C(=O)NCc3cccc(Cl)c3)C2)cc(=O)n(C)c1=O | -20% | 3.09
Cc1c(NC(=O)C2(c3cccs3)CCCCC2)nnn1C | -2% | 0.31
C[C@@H](Cn1cncn1)c1nc(C2(c3ccccc3)CC2)n[nH]1 | 8% | -1.08
CC(=O)N1CCN(c2ccc(Nc3cc(C)nc4nc(-c5ccc(C)cc5)nn34)cc2Cl)CC1 | -4% | 0.55
CC(C)c1n[nH]c2c1CN(C(=O)c1onc3c1CCCC3)CC2 | -10% | 1.55
N#Cc1cccc(COC2CCCCC2)c1 | -6% | 1.15
Fc1c(Cl)cccc1CNCc1ccc(C2OCCO2)cc1 | -10% | 1.35

SMILES | % Inhibition | Z score
Cc1ccc2c(c1)C(=O)N(C)[C@@H](c1cn3ccccc3n1)N2 | -19% | 2.47
CCCC(=O)c1cn(CC(=O)N2CCC[C@H]2c2nc(C)n[nH]2)c2ccccc12 | -10% | 1.25
O=C1CCC(C(=O)N2CCC(OCCCc3ccccc3)C2)N1 (stereo not given) | -7% | 0.86
COc1ccccc1C1=NS(=O)(=O)N(C)C(C(=O)N2CCN(c3ccc(F)cc3)CC2)=C1 | -4% | 0.74
CC(C)N1C[C@@H](CNC(=O)c2cncnc2)CC1=O | -10% | 1.38
Cc1csc(-c2nccn2CCc2nc(-c3cccnc3)n[nH]2)n1 | 1% | -0.11
COc1ccc(-c2nccn2CCc2ccccn2)c(OC)c1 | 1% | -0.25
Cn1nncc1NC(=O)N1CC(=O)NC[C@H]1c1ccccc1 | 2% | -0.2
CCCCN([C@@H](C)c1ccccc1)S(=O)(=O)CC#N | 8% | -1.31
O=C(Nc1nn(Cc2ccccc2)cc1Cl)c1cc(-c2ccc(OC(F)F)cc2)[nH]n1 | 38% | -5.18
COCCN(Cc1ccsc1)S(=O)(=O)Cc1cccc(C)c1 | -2% | 0.45
NC(=O)c1cccnc1N1CCO[C@@H](Cc2ccccc2)C1 | -10% | 0.96
Cc1nc(C)c([C@H](C)NC(=O)CCc2ccc(C(=O)O)cc2)s1 | -7% | 0.97
CCCS(=O)(=O)N[C@@H](C)C(=O)NCc1cccnc1OC | 1% | -0.16
O=C(c1cncc(O)n1)N1C[C@@H]2CC[C@@H](C2)C1 | -10% | 1.79
O=C(Nc1nc2c(s1)CN(C(=O)c1ccc(Cl)s1)CC2)[C@@H]1CCCO1 | -12% | 1.7
COc1ccc(CN([C@@H](C)C2CC2)S(=O)(=O)N2CCCC2)cc1 | -4% | 0.57
Cc1ccc(C)c(-n2c(=O)c3sccc3n(CC(=O)Nc3cc(C)on3)c2=O)c1 | 6% | -0.86
Cn1cc(CCc2nc(-c3ccccc3)no2)cn1 | 0% | 0.02
